Assay results published in the supplement of paper PMC12217912.
The list shows a part of the results. Sequences were assembled here from the parent chain. Values near 0.05 are background.

B1: TEV protease; numbered along this chain (parent)
chain: MGESLFKGPRDYNPISSSICHLTNESDGHTTSLYGIGFGPFIITNKHLFRRNNGTLVVQSLHGVFKVKDTTTLQQHLVDGRDMIIIRMPKDFPPFPQKLKFREPQREERICLVTTNFQTKSMSSMVSDTSCTFPSGDGIFWKHWIQTKDGQCGSPLVSTRDGFIVGIHSASNFTNTNNYFTSVPKNFMELLTNQEAQQWVSGWRLNADSVLWGGHKVFMVKPEEPFQPVKEATQL

Variants of: B1
Assay: raw area under fraction-flipped curve 0-4 h after induction (AUC4h, not background-subtracted), DNA-recorder readout of cleavage of the substrate (dimensionless); higher = more cleavage of the substrate by the protease variant
Conditions: temperature: 34 °C; time window: 0-4 h after rhamnose induction
Experimental: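 In vivo DNA recorder in E. coli TOP10(DE3) ΔrhaA at 34 °C. Each TEVp single-site mutant (parent TEVp 0) is paired with a single-site variant of the 7-mer TEVs (canonical ENLYFQ|S). The substrate sits between flexible linkers in a Bxb1-sfGFP-TEVs-SsrA fusion, so cleavage stabilises Bxb1 and speeds flipping of a recombination array, read by NGS. The value is the raw area under the fraction-flipped curve over 0-4 h after rhamnose induction (AUC4h), with ≥20 reads per time point. It is not background-subtracted; inactive controls average about 0.047.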
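Also: Bxb1 expression induced with 0.2% (w/v) L-rhamnose at OD600 near 0.5, cultures sampled hourly, flipped fraction per protease–substrate barcode pair counted by paired-end Illumina sequencing.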

F95S
area with substrate ENLYFAS: 0.0405
area with substrate ENLYFCS: 0.0595
area with substrate ENLYFES: 0.068
area with substrate ENLYFFS: 0.0591
area with substrate ENLYFHS: 0.0457
area with substrate ENLYFIS: 0.0526
area with substrate ENLYFKS: 0.0527
area with substrate ENLYFLS: 0.0566
area with substrate ENLYFMS: 0.059
area with substrate ENLYFNS: 0.0561
area with substrate ENLYFPS: 0.0577
area with substrate ENLYFRS: 0.0378
area with substrate ENLYFTS: 0.0514
area with substrate ENLYFVS: 0.054
area with substrate ENLYFWS: 0.0585
area with substrate ENLYFYS: 0.0499

F41N
area with substrate ENLYFAS: 0.0534
area with substrate ENLYFCS: 0.0589
area with substrate ENLYFDS: 0.0705
area with substrate ENLYFES: 0.0612
area with substrate ENLYFGS: 0.0568
area with substrate ENLYFHS: 0.072
area with substrate ENLYFIS: 0.049
area with substrate ENLYFKS: 0.0706
area with substrate ENLYFLS: 0.0602
area with substrate ENLYFMS: 0.0396
area with substrate ENLYFPS: 0.0594
area with substrate ENLYFRS: 0.0565
area with substrate ENLYFTS: 0.0442
area with substrate ENLYFVS: 0.0643
area with substrate ENLYFWS: 0.0753
area with substrate ENLYFYS: 0.0628

H76E
area with substrate ENLYFAS: 0.0451
area with substrate ENLYFCS: 0.0629
area with substrate ENLYFDS: 0.0448
area with substrate ENLYFES: 0.0643
area with substrate ENLYFFS: 0.0609
area with substrate ENLYFHS: 0.0776
area with substrate ENLYFIS: 0.0551
area with substrate ENLYFKS: 0.063
area with substrate ENLYFLS: 0.068
area with substrate ENLYFMS: 0.0541
area with substrate ENLYFNS: 0.054
area with substrate ENLYFPS: 0.0456
area with substrate ENLYFRS: 0.033
area with substrate ENLYFSS: 0.0782
area with substrate ENLYFTS: 0.0678
area with substrate ENLYFVS: 0.0627
area with substrate ENLYFWS: 0.0592
area with substrate ENLYFYS: 0.0806

P225W
area with substrate ENLYFAS: 0.0468
area with substrate ENLYFDS: 0.0508
area with substrate ENLYFES: 0.0665
area with substrate ENLYFFS: 0.0709
area with substrate ENLYFGS: 0.0619
area with substrate ENLYFIS: 0.0629
area with substrate ENLYFKS: 0.0436
area with substrate ENLYFLS: 0.0637
area with substrate ENLYFMS: 0.075
area with substrate ENLYFNS: 0.0509
area with substrate ENLYFPS: 0.047
area with substrate ENLYFRS: 0.0512
area with substrate ENLYFSS: 0.0522
area with substrate ENLYFTS: 0.0579
area with substrate ENLYFWS: 0.0548

L33V
area with substrate ENLYFAS: 0.0576
area with substrate ENLYFCS: 0.0727
area with substrate ENLYFDS: 0.0626
area with substrate ENLYFES: 0.0719
area with substrate ENLYFFS: 0.0657
area with substrate ENLYFGS: 0.0713
area with substrate ENLYFHS: 0.0655
area with substrate ENLYFIS: 0.0754
area with substrate ENLYFKS: 0.0632
area with substrate ENLYFMS: 0.0594
area with substrate ENLYFNS: 0.0662
area with substrate ENLYFPS: 0.0612
area with substrate ENLYFRS: 0.064
area with substrate ENLYFSS: 0.0547
area with substrate ENLYFYS: 0.0398

S158H
area with substrate ENLYFAS: 0.0747
area with substrate ENLYFCS: 0.0513
area with substrate ENLYFDS: 0.0484
area with substrate ENLYFES: 0.0546
area with substrate ENLYFFS: 0.0533
area with substrate ENLYFGS: 0.0518
area with substrate ENLYFIS: 0.0518
area with substrate ENLYFKS: 0.0422
area with substrate ENLYFLS: 0.0234
area with substrate ENLYFMS: 0.0509
area with substrate ENLYFPS: 0.0457
area with substrate ENLYFRS: 0.0552
area with substrate ENLYFSS: 0.0503
area with substrate ENLYFTS: 0.0528
area with substrate ENLYFWS: 0.0538

L191T
area with substrate ENLYFAS: 0.0577
area with substrate ENLYFCS: 0.059
area with substrate ENLYFES: 0.0535
area with substrate ENLYFFS: 0.0686
area with substrate ENLYFGS: 0.0646
area with substrate ENLYFIS: 0.0626
area with substrate ENLYFKS: 0.0683
area with substrate ENLYFLS: 0.0591
area with substrate ENLYFNS: 0.0574
area with substrate ENLYFPS: 0.0501
area with substrate ENLYFRS: 0.0536
area with substrate ENLYFTS: 0.0508

Q74G
area with substrate ENLYFAS: 0.0818
area with substrate ENLYFCS: 0.0601
area with substrate ENLYFES: 0.066
area with substrate ENLYFGS: 0.0337
area with substrate ENLYFHS: 0.0535
area with substrate ENLYFIS: 0.0637
area with substrate ENLYFKS: 0.0684
area with substrate ENLYFLS: 0.0802
area with substrate ENLYFMS: 0.0878
area with substrate ENLYFNS: 0.0663
area with substrate ENLYFPS: 0.0517
area with substrate ENLYFRS: 0.0631
area with substrate ENLYFSS: 0.0626
area with substrate ENLYFTS: 0.0557
area with substrate ENLYFVS: 0.0486
area with substrate ENLYFWS: 0.0411
area with substrate ENLYFYS: 0.0591

G63M
area with substrate ENLYFAS: 0.0448
area with substrate ENLYFCS: 0.103
area with substrate ENLYFES: 0.0542
area with substrate ENLYFHS: 0.0515
area with substrate ENLYFIS: 0.044
area with substrate ENLYFKS: 0.0756
area with substrate ENLYFMS: 0.0558
area with substrate ENLYFPS: 0.055
area with substrate ENLYFSS: 0.0396
area with substrate ENLYFTS: 0.049
area with substrate ENLYFVS: 0.0468
area with substrate ENLYFWS: 0.0602
area with substrate ENLYFYS: 0.0666

V57K
area with substrate ENLYFAS: 0.0716
area with substrate ENLYFCS: 0.0543
area with substrate ENLYFES: 0.0619
area with substrate ENLYFFS: 0.0708
area with substrate ENLYFGS: 0.0511
area with substrate ENLYFIS: 0.0796
area with substrate ENLYFKS: 0.0633
area with substrate ENLYFMS: 0.0625
area with substrate ENLYFPS: 0.0574
area with substrate ENLYFRS: 0.061
area with substrate ENLYFSS: 0.0579
area with substrate ENLYFVS: 0.0668
area with substrate ENLYFWS: 0.0531

R81G
area with substrate ENLYFAS: 0.0374
area with substrate ENLYFCS: 0.0331
area with substrate ENLYFFS: 0.0701
area with substrate ENLYFGS: 0.0607
area with substrate ENLYFHS: 0.0544
area with substrate ENLYFIS: 0.0628
area with substrate ENLYFKS: 0.062
area with substrate ENLYFMS: 0.0711
area with substrate ENLYFPS: 0.0595
area with substrate ENLYFRS: 0.0595
area with substrate ENLYFSS: 0.0612
area with substrate ENLYFWS: 0.065

I42G
area with substrate ENLYFAS: 0.0264
area with substrate ENLYFCS: 0.0276
area with substrate ENLYFES: 0.0575
area with substrate ENLYFFS: 0.0313
area with substrate ENLYFGS: 0.0543
area with substrate ENLYFHS: 0.0458
area with substrate ENLYFIS: 0.0357
area with substrate ENLYFKS: 0.0239
area with substrate ENLYFMS: 0.0392
area with substrate ENLYFPS: 0.0367
area with substrate ENLYFRS: 0.0338
area with substrate ENLYFTS: 0.0537
area with substrate ENLYFVS: 0.0351
area with substrate ENLYFWS: 0.0372
area with substrate ENLYFYS: 0.0549
